The whole screen tested about 310,000 compounds, of which about 2,200 (0.71%) showed an effect of 50% or more. The effect is printed as a negative number. The list shows a part of the results.
Target: human ether-à-go-go-related gene (hERG) potassium channel (human, UniProt Q12809)
Experiment: primary screen, population patch clamp on CHO cells stably expressing hERG

human ether-à-go-go-related gene (hERG) potassium channel, sequence (Q12809 whole entry, looked up): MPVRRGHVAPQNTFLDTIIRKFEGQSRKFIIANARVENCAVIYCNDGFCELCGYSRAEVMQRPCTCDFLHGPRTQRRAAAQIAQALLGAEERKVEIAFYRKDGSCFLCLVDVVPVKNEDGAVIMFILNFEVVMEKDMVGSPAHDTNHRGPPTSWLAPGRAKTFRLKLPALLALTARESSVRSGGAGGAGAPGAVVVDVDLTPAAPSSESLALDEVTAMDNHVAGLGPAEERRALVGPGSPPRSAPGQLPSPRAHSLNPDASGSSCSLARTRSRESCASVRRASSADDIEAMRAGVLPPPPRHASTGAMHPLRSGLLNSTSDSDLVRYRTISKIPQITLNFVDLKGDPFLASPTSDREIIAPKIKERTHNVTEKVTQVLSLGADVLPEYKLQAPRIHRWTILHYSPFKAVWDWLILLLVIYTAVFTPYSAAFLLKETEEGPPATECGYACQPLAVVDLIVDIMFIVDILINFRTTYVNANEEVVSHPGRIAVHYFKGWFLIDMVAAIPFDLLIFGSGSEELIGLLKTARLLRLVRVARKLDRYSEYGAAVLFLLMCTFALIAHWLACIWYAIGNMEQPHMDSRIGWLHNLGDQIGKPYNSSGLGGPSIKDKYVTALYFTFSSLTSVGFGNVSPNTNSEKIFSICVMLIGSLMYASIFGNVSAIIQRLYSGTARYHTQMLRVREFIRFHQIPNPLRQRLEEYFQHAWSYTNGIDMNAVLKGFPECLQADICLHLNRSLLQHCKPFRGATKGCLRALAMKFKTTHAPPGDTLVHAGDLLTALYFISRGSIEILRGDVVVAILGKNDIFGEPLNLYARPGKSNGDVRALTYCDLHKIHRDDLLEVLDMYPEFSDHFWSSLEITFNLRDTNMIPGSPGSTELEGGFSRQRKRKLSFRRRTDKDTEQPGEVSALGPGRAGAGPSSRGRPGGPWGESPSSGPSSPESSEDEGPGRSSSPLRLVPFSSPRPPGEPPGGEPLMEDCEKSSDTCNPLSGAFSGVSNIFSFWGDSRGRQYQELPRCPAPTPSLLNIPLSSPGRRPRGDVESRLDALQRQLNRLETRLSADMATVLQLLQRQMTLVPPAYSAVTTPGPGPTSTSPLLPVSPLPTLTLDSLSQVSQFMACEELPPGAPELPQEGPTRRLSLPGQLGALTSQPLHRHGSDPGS

Row | Structure (SMILES) | hERG current change (%, negative = inhibition) at 1uM
1 | COC(=O)CNc1nc(-c2ccncc2)nc2ccccc12 | 6.72%
2 | O=S1(=O)CCOC[C@H](Cc2ccccc2)N1Cc1cccc(F)c1 | 7.43%
3 | Cc1ccccc1NC(=O)c1ccc(F)c(S(=O)(=O)N2CCN(c3ccccn3)CC2)c1 | 6.71%
4 | CC(C(=O)O)C1SC(=O)NC1=O (centres unmarked) | 8.38%
5 | O=C1NCCCCC1NS(=O)(=O)c1cccc(C(F)(F)F)c1 (centres unmarked) | 9.87%
6 | C/C(=N/NC(=O)c1ccccc1O)c1ccc(N2C(=O)C3CCCCC3C2=O)cc1 (centres unmarked) | 19.4%
7 | O=C(Nc1cccc2ccccc12)NC1CCCCC1O (centres unmarked) | -2.01%
8 | CCc1nc2c(n1O)CCc1nonc1-2 | 2.68%
9 | Cc1ccc(OCCCn2ccnc2)c([N+](=O)[O-])c1 | -2.31%
10 | COc1cc(C2CC(=O)c3cnc(NC(=O)c4ccco4)nc3C2)cc(OC)c1OC (centres unmarked) | 14.9%
11 | CSc1ncccc1C(=O)OCC(=O)NC(=O)NCCC(C)C | -5.41%
12 | CCOc1ccc2nc(SCC3CC3(Cl)Cl)[nH]c2c1 (centres unmarked) | 9.37%
13 | CC(=O)N1CCc2cc(S(=O)(=O)NC(C(=O)NC3CCCc4ccccc43)C(C)C)ccc21 (centres unmarked) | 9.27%
14 | Cc1ccc(SCCNC(=O)c2ccccc2)cc1 | 6.83%
15 | Cc1ccc(S(=O)(=O)NCC(=O)OCC(=O)c2ccc(Cl)s2)cc1 | 8.17%
16 | COc1ccc2c(c1OC)C(=O)N1C2SC[C@H]1C(=O)NC1CCCC1 (some centres unmarked) | 16.3%
17 | COc1ccccc1C(=O)COC(=O)c1ccccc1OCC(=O)Nc1ccc(SC(F)F)cc1 | 11.4%
18 | O=C(CC1CC2CCC1C2)NCc1cccs1 (centres unmarked) | 6.89%
19 | Cc1ccc(N2CC(C(=O)N3CCC(C(=O)NC(C)(C)C)CC3)CC2=O)cc1 (centres unmarked) | 17.7%
20 | CC(C)Cn1nnc2c(=O)oc3ccccc3c21 | -6.01%
21 | O=C(CCOc1ccccc1)Nc1ccnn1C1CCN(Cc2ccc(CO)o2)CC1 | 10.8%
22 | Cc1c(C2OC(=O)C3(CCCCC3)C(=O)C2(C)C)c(=O)n(-c2ccccc2)n1C (centres unmarked) | 2.52%
23 | COc1ccc(S(=O)(=O)N2CCCN(C)CC2)cc1.Cl | 11.4%

Row | Structure (SMILES) | hERG current change (%, negative = inhibition) at 1uM
24 | CC1S/C(=N/N=C2CCCCC2)NC1=O (centres unmarked) | 12%
25 | CCOC(=O)c1c(S(=O)(=O)Nc2ccc(F)cc2Cl)c(C)n(C)c1C | 9.97%
26 | COc1ccc(N2C(=S)N=C(Nc3cccc(C)c3)C23CCCCC3)cc1 | 14.6%
27 | CCN(CCO)c1ncnc2onc(-c3ccc(F)cc3)c12 | 8.08%
28 | Cc1ccccc1NC(=S)NCc1cccn1C | -4.86%
29 | Cc1cnc(NC(=O)Cc2ccccc2F)s1 | 12.6%
30 | CC1CCCCC12NC(=O)N(CC(=O)OCC(=O)NC(=O)c1ccccc1)C2=O (centres unmarked) | 9.8%
31 | CN(CCNC(=O)C1CCN(c2ncnc3c2nc2n3CCCCC2)CC1)Cc1ccccc1 | 10.7%
32 | O=C(C1CCCCC1)N1CCCC(c2nc3c(nnn3Cc3ccccc3)c(=O)[nH]2)C1 (centres unmarked) | -4.29%
33 | O=C(NNC1=NCCC1)c1cccc(S(=O)(=O)N2CCOCC2)c1 | 10.2%
34 | CCCCNC(=O)c1ccc2nc(-c3ccco3)c(-c3ccco3)nc2c1 | 3.57%
35 | CC1CCN(C(=S)c2cn(Cc3ccc(F)cc3)c3ccccc23)CC1 | 4.36%
36 | CCOc1c2ccc(C(=O)NCc3ccco3)cc2nn1CCOC | 7.12%
37 | CCS(=O)(=O)N1CCN(C2CCC(C)CC2)CC1.O=C(O)C(=O)O (centres unmarked) | 11.7%
38 | Cc1n(Cc2ccccc2)c2cc([N+](=O)[O-])ccc2[n+]1Cc1ccccc1.[Cl-] | 19.1%
39 | CCN1CCN(Cc2c(C(=O)N/N=C(\C)c3ccc(Cl)cc3)nnn2-c2nonc2N)CC1.Cl | 10.1%
40 | COc1c(C)cc(C(=O)C2CCCN(Cc3ccc(Oc4ncccn4)cc3)C2)cc1C (centres unmarked) | -18.1%
41 | COc1ccc(C(=O)Nc2cc(C(C)=O)c(/C=C/N(C)C)oc2=O)cc1 | 10.7%
42 | CCn1c(SCC(=O)NCc2ccc3c(c2)OCO3)nnc1-c1ccncc1 | 14.1%
43 | COc1ccc(C(=O)N/N=C/c2ccccc2OC(=O)c2ccccc2)cc1 | 10.5%
44 | O=C1c2ccccc2CC1(Cc1ccccc1)Cc1ccccc1 | -11.4%
45 | O=C(CSCc1cccc(Cl)c1)N1CCN(Cc2ccc3c(c2)OCO3)CC1 | -6.36%
46 | CC(C)CSc1n[nH]c(N)n1 | 11%

Row | Structure (SMILES) | hERG current change (%, negative = inhibition) at 1uM
47 | CCOc1ccc2nc(NC(=O)C3=NN(c4ccccc4)C(=O)CC3)sc2c1 | 11.2%
48 | CCN(CC)S(=O)(=O)c1cccc(NC(=O)COC(=O)C2CC3C=CC2C3)c1 (centres unmarked) | 11.8%
49 | CC(=O)NC(Cc1ccccc1C)C(=O)NC1CCN(c2nnnn2-c2ccccc2)CC1 (centres unmarked) | 12.7%
50 | CCOc1ncccc1-c1nc(-c2cccs2)no1 | 12.5%
51 | Cc1nc(SCC(=O)Nc2ccc(Cl)cc2[N+](=O)[O-])nc(C)c1C | 8.86%
52 | CCOC(=O)C1CCCN(CCC(=O)Nc2ccc3c(c2)CCC3)C1 (centres unmarked) | -8.84%
53 | CCCCCCC(=O)Nc1ccc(C(=O)N/N=C/c2cccnc2)cc1 | 0.253%
54 | O=C1NN=COc2ccccc21 | 4.08%
55 | CC(C)CC(=O)Nc1ccc(C(=O)COC(=O)C2=COCCO2)cc1 | -9.02%
56 | CC(C)CC(=O)Nc1ccc(S(=O)(=O)N2CC3CC(C2)c2cccc(=O)n2C3)cc1 (centres unmarked) | 11.8%
57 | CN1CCN(C(=O)C2=C[C@H](c3ccc4c(c3)OCO4)C[C@H](OCCCCO)O2)CC1 | 6.53%
58 | CCCc1ccc2oc(C(=O)N3CCN(C4CCS(=O)(=O)C4)CC3)c(C)c2c1 (centres unmarked) | 4.95%
59 | CC(C)c1ccc(/C=N/NC(=O)c2nnn(-c3nonc3N)c2CSC2=NCCS2)cc1 | 13.2%
60 | O=C(NCc1ccccn1)C1CCC(=O)N(Cc2ccc(Cl)cc2)C1 (centres unmarked) | 48.8%
61 | c1cn2cc(CSC3CCCCC3)nc2s1 | 6.16%
62 | CCn1c(CC(=O)Nc2ccc(Cl)c(Cl)c2)nnc1SCc1ccc(C)cc1 | 16.1%
63 | CC(C(=O)Nc1cccc([N+](=O)[O-])c1)N1C(=O)NC2(CCCC2)C1=O (centres unmarked) | 15.2%
64 | COc1ccc(S(=O)(=O)N2CCCCC2)cc1NC(=O)c1ccc(=O)[nH]c1 | 6.14%
65 | Cn1c(=O)c2c(nc(Oc3ccc4c(c3)OCO4)n2Cc2ccc(Br)cc2)n(C)c1=O | 2.26%
66 | Cc1cccc(Nc2c([N+](=O)[O-])c(=O)n(C)c3ccccc23)c1 | 10.4%
67 | O=C(Cc1ccc(S(=O)(=O)N2CCOCC2)s1)NCCOc1ccccc1F | 3.06%
68 | CCCCOC(=O)C1=C(C)Nc2ncnn2C1c1ccc(OCC)c(OC)c1 (centres unmarked) | -17%
69 | O=C(CN(c1ccccc1)S(=O)(=O)c1ccccc1[N+](=O)[O-])N1CCCC1 | 18%

Row | Structure (SMILES) | hERG current change (%, negative = inhibition) at 1uM
70 | O=C(CSc1nc(C2CCCCC2)n(-c2ccccc2)n1)NCCN1C(=O)CSC1=O | 6.57%
71 | Nc1ccc(S(=O)(=O)NC2=NCCCCC2)cc1 | 10.8%
72 | COC(=O)C1=C(c2ccccc2)C[C@@H]2CC[C@H]1N2C(=O)NCc1cccc2ccccc12 | 15.4%
73 | CNC(=O)C1CCN(S(=O)(=O)c2c(C)noc2/C=C/c2cccc(C)c2)CC1 | 15.7%
74 | COC(=O)C1=NN(C(=O)c2ccccc2)C(O)(c2ccc([N+](=O)[O-])cc2)C1 (centres unmarked) | -0.317%
75 | Cc1cc(C)nc(SCC(=O)O)n1 | 8.99%
76 | O=C(O)/C=C/C(=O)Nc1ccc(-c2ccccc2)cc1 | 5.84%
77 | CN1CCC2(O)OCCCC2C1 (centres unmarked) | 19.1%
78 | Cc1ccccc1OCCN(C#N)c1nc(N(C)C)nc(N(C)C)n1 | 7.02%
79 | CCN(CC)S(=O)(=O)c1cccc(NC(=O)c2cc3ccccc3o2)c1 | -11.3%
80 | CCCOc1ccc(CSc2nnc(CCC)n2N)cc1 | 12.1%
81 | Cc1cc(C=C2C(=O)c3ccccc3C2=O)c(C)n1C | 7.02%
82 | Cc1ccc2oc(-c3cccc(NC(=O)c4cc(-n5cnnc5)ccc4Cl)c3)nc2c1 | 3.32%
83 | Br.NC1=NN=C(c2ccc3c(c2)OCCO3)CS1 | 11.1%
84 | COc1ccc(-n2cnc3cc(NS(=O)(=O)c4ccc(C)cc4)ccc32)cc1 | -6.12%
85 | Cc1ccc(N/C=C/c2onc(C)c2[N+](=O)[O-])cc1 | 7.16%
86 | O=C(Cn1c(=O)c(C(F)(F)F)nc2ccccc21)N1CCC2(CC1)OCCO2 | -0.212%
87 | CCc1ccc(C(=O)COC(=O)c2ccc(Cl)nc2)cc1 | 12%
88 | CC(Oc1cccc(Cl)c1)C(=O)Nc1ccc(S(=O)(=O)Nc2ncccn2)cc1 (centres unmarked) | 14.8%
89 | Cn1cc(C(=O)NCCN2CCN(c3cccc(Cl)c3)CC2)c2c3ccccc3n(C)c2c1=O | -7.97%
